Measured values published in the supplement of paper PMC11098506.
± gives the standard deviation of the averaged measurements. The list shows a part of the results.

B1: VDAC2; numbered along this chain (parent)
chain: MATHGQTCARPMCIPPSYADLGKAARDIFNKGFGFGLVKLDVKTKSCSGVEFSTSGSSNTDTGKVTGTLETKYKWCEYGLTFTEKWNTDNTLGTEIAIEDQICQGLKLTFDTTFSPNTGKKSGKIKSSYKRECINLGCDVDFDFAGPAIHGSAVFGYEGWLAGYQMTFDSAKSKLTRNNFAVGYRTGDFQLHTNVNDGTEFGGSIYQKVCEDLDTSVNLAWTSGTNCTRFGIAAKYQLDPTASISAKVNNSSLIGVGYTQTLRPGVKLTLSALVDGKSINAGGHKVGLALELEA

Variants of: B1
Assay: log2 fold difference of barcode abundance, GFP-BAK-high vs GFP-BAK-low sorted fraction (log2 ratio); higher = VDAC2 variant stabilises more GFP-BAK at mitochondria
Settings: with BAK1 (mouse, GFP-tagged), Mcl1-/- Bax-/- Bak-/- Vdac2-/- MEF + GFP-mBAK
Experimental: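 Deep mutational scan of human VDAC2 (FLAG-tagged) with single amino acid substitutions at positions Q165–F180 (β10–11 loop), each barcoded clone expressed by retrovirus in Mcl1/Bax/Bak/Vdac2-deficient MEFs that also express GFP-tagged mouse BAK. Cells were sorted into GFP-high and GFP-low fractions and barcodes counted by Illumina sequencing. The score is log2(CPM) in GFP-BAK-high minus log2(CPM) in GFP-BAK-low, per barcode; barcodes of the same variant are averaged. It reports BAK recruitment and stabilisation at the mitochondrial outer membrane.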
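Note: sorting relied on GFP fluorescence, which stays low in these cells lacking VDAC2 and climbs sharply once wild-type VDAC2 is expressed.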

| Variant | log2 fold difference |
| --- | --- |
| L175F | 0.19 ± 0.6 |
| L175M | 1.05 ± 1.6 |
| L175V | 0.412 ± 0.84 |
| L175W | -0.123 ± 0.99 |
| L175A | -0.4 ± 1.1 |
| L175R | -0.0235 ± 0.84 |
| L175G | -0.433 ± 1.1 |
| L175I | -0.0483 ± 0.65 |
| L175N | -0.199 ± 1.3 |
| L175H | 0.0297 ± 0.92 |
| L175T | 0.333 ± 1 |
| L175Q | -0.225 ± 0.66 |
| L175E | -0.724 ± 1.2 |
| L175C | 0.453 ± 1 |
| L175P | -0.959 ± 0.7 |
| L175S | -0.514 ± 0.83 |
| L175D | -0.751 ± 0.58 |
| L175Y | 0.0732 ± 1.4 |
| L175K | -1.37 ± 0.53 |
| T167D | -1.29 ± 0.21 |
| T167I | 0.492 ± 0.69 |
| T167C | 0.94 ± 0.38 |
| T167S | 0.157 ± 0.92 |
| T167Y | -0.858 ± 0.097 |
| T167Q | -0.634 ± 0.49 |
| T167G | -0.41 ± 0.98 |

| Variant | log2 fold difference |
| --- | --- |
| T167E | 0.785 ± 0.23 |
| T167F | 0.381 ± 1.1 |
| T167L | -0.514 ± 0.92 |
| T167A | -0.638 ± 0.85 |
| T167K | -0.673 ± 1.6 |
| T167H | -0.0254 ± 0.79 |
| T167V | -0.201 ± 1.3 |
| T167R | -0.172 ± 1.1 |
| T167M | -0.675 ± 0.74 |
| T167N | -0.389 ± 1.1 |
| T167W | -0.703 ± 0.47 |
| T167P | -0.524 ± 0.28 |
| T176W | -0.369 ± 0.4 |
| T176F | -0.422 ± 0.76 |
| T176I | -0.168 ± 1.1 |
| T176N | -0.844 ± 0.56 |
| T176Y | -0.154 ± 0.91 |
| T176H | -1.56 |
| T176A | -0.166 ± 0.86 |
| T176D | 0.194 ± 0.64 |
| T176G | 0.235 ± 1.1 |
| T176P | -0.128 ± 0.54 |
| T176M | -0.494 ± 0.73 |
| T176C | -0.0918 ± 0.84 |
| T176K | -0.466 ± 1.3 |
| T176S | 0.263 ± 0.8 |

| Variant | log2 fold difference |
| --- | --- |
| T176E | 0.331 ± 1.3 |
| T176Q | 0.361 ± 1.4 |
| T176V | 0.152 ± 1.1 |
| T176L | -0.656 ± 1.1 |
| T176R | -0.506 ± 0.71 |
| D169Q | -1.44 ± 0.75 |
| D169R | -0.636 ± 1.1 |
| D169K | -0.698 ± 0.87 |
| D169V | -0.67 ± 1.3 |
| D169L | -0.24 ± 0.9 |
| D169C | 0.481 ± 0.68 |
| D169G | -0.778 ± 0.72 |
| D169F | -0.427 ± 1.1 |
| D169N | -0.758 ± 0.54 |
| D169W | -0.337 ± 0.68 |
| D169H | 0.00625 ± 1 |
| D169I | -0.709 ± 0.91 |
| D169A | -1.07 ± 0.6 |
| D169T | -1.08 ± 1 |
| D169M | 0.201 |
| D169P | -1.02 ± 1.3 |
| D169E | -0.54 ± 0.48 |
| D169S | -1.04 ± 0.68 |
| D169Y | -0.525 ± 0.68 |
| N178R | 0.424 ± 0.97 |
| N178P | 0.0578 ± 1.2 |

| Variant | log2 fold difference |
| --- | --- |
| N178S | -0.39 ± 1 |
| N178Q | 0.722 ± 0.96 |
| N178T | 0.186 ± 0.87 |
| N178L | 0.307 ± 0.98 |
| N178K | 0.222 ± 1 |
| N178E | 0.44 ± 1.1 |
| N178M | 0.0996 ± 0.73 |
| N178W | 0.419 ± 0.89 |
| N178G | 0.494 ± 0.87 |
| N178F | 0.462 ± 0.93 |
| N178H | -0.0581 ± 0.64 |
| N178C | 0.279 ± 0.64 |
| N178I | 0.729 ± 0.74 |
| N178V | 0.0386 ± 0.82 |
| N178A | 0.461 ± 1.1 |
| N178D | -0.107 ± 0.6 |
| N178Y | -0.494 ± 0.97 |
| R177E | 0.394 ± 0.88 |
| R177V | 0.205 ± 1 |
| R177N | 0.309 ± 0.93 |
| R177K | 0.193 ± 0.81 |
| R177Y | 0.732 ± 0.63 |
| R177H | -0.152 ± 0.72 |
| R177I | -0.173 ± 0.86 |
| R177A | -0.221 ± 1 |
| R177M | -0.0305 ± 0.47 |

| Variant | log2 fold difference |
| --- | --- |
| R177T | 0.147 ± 0.79 |
| R177C | -0.0847 ± 0.61 |
| R177L | -0.0484 ± 0.91 |
| R177W | -0.345 ± 0.86 |
| R177S | -0.209 ± 0.96 |
| R177D | -0.0777 ± 0.87 |
| R177F | 0.109 ± 0.88 |
| R177P | -0.62 ± 0.77 |
| R177G | 0.346 ± 1.1 |
| R177Q | -0.295 ± 1.5 |
| N179P | -1.44 ± 0.28 |
| N179I | -0.405 ± 0.66 |
| N179C | -0.411 ± 1.1 |
| N179G | 0.168 ± 0.82 |
| N179H | 0.0378 ± 1 |
| N179E | 0.757 ± 0.61 |
| N179F | -0.42 ± 1.2 |
| N179K | -0.649 ± 0.79 |
| N179Q | 0.426 ± 0.61 |
| N179V | 0.0686 ± 1.1 |
| N179T | 0.657 ± 1.1 |
| N179L | -0.0224 ± 1.1 |
| N179S | 0.604 ± 0.93 |
| N179M | 0.052 ± 1.2 |
| N179R | 0.216 ± 0.89 |
| N179Y | -0.109 ± 0.79 |

| Variant | log2 fold difference |
| --- | --- |
| N179D | -0.056 ± 0.84 |
| N179W | 0.186 ± 1.4 |
| N179A | 0.364 ± 0.97 |
| F168N | -0.462 ± 1.3 |
| F168I | -0.0402 ± 1.3 |
| F168G | -0.784 ± 0.78 |
| F168D | -0.818 ± 0.41 |
| F168C | -0.838 ± 1.1 |
| F168M | -0.00625 |
| F168W | 1.3 ± 0.75 |
| F168H | -0.69 ± 0.72 |
| F168P | -1.28 ± 0.72 |
| F168K | -0.253 ± 1.1 |
| F168R | -0.344 ± 1.2 |
| F168V | -0.593 ± 1 |
| F168T | -0.818 ± 0.87 |
| F168A | -0.327 ± 1.1 |
| F168L | -0.433 ± 0.9 |
| F168Q | -0.714 ± 0.61 |
| F168Y | 0.38 ± 0.76 |
| F168S | -0.831 ± 0.66 |
